# Source: the supplement of paper PMC8728848
# This is one part of the list.
# How the values were obtained:
# Assay in all cases: glycan array binding signal (z-score within array); higher = stronger binding
# Conditions in all cases: glycan notation: IUPAC condensed, linker removed
# Fuc(a1-2)Gal = target: Fuc(a1-2)Gal
# Procedure, shortened: (§1)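 From the Consortium for Functional Glycomics database, 3228 arrays were curated, keeping only those whose protein sequence was available. Binding is given as a within-array Z-score averaged across arrays sharing a protein sequence and across linkers. Negative Z-scores can be read as non-binding.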
# Fuc(a1-2)Gal(b1-3)GalNAc = target: Fuc(a1-2)Gal(b1-3)GalNAc
# Procedure, shortened: as §1
# [1] = target: Fuc(a1-2)Gal(b1-3)GalNAc(b1-3)Gal
# Procedure, shortened: as §1
# [2] = target: Fuc(a1-2)Gal(b1-3)GalNAc(b1-3)Gal(a1-4)Gal(b1-4)Glc
# Procedure, shortened: as §1
# [3] = target: Fuc(a1-2)Gal(b1-3)GalNAc(b1-4)[Neu5Ac(a2-3)]Gal(b1-4)Glc
# Procedure, shortened: as §1
# Fuc(a1-2)Gal(b1-3)GlcNAc = target: Fuc(a1-2)Gal(b1-3)GlcNAc
# Procedure, shortened: as §1
# [4] = target: Fuc(a1-2)Gal(b1-3)GlcNAc(b1-3)Gal(b1-4)Glc
# Procedure, shortened: as §1
# [5] = target: Fuc(a1-2)Gal(b1-3)[Fuc(a1-4)]GlcNAc
# Procedure, shortened: as §1
# Fuc(a1-2)Gal(b1-4)Glc = target: Fuc(a1-2)Gal(b1-4)Glc
# Procedure, shortened: as §1
# Fuc(a1-2)Gal(b1-4)Glc6S = target: Fuc(a1-2)Gal(b1-4)Glc6S
# Procedure, shortened: as §1
# Fuc(a1-2)Gal(b1-4)GlcNAc = target: Fuc(a1-2)Gal(b1-4)GlcNAc
# Procedure, shortened: as §1
# [6] = target: Fuc(a1-2)Gal(b1-4)GlcNAc(b1-3)Gal(b1-4)GlcNAc
# Procedure, shortened: as §1
# [7] = target: Fuc(a1-2)Gal(b1-4)GlcNAc(b1-3)Gal(b1-4)GlcNAc(b1-3)Gal(b1-4)GlcNAc
# Procedure, shortened: as §1
# [8] = target: Fuc(a1-2)Gal(b1-4)GlcNAc6S
# Procedure, shortened: as §1
# [9] = target: Fuc(a1-2)Gal(b1-4)[Fuc(a1-3)]GlcNAc
# Procedure, shortened: as §1
# [10] = target: Fuc(a1-2)Gal(b1-4)[Fuc(a1-3)]GlcNAc(b1-3)Gal(b1-4)[Fuc(a1-3)]GlcNAc
# Procedure, shortened: as §1
# [11] = target: Fuc(a1-2)Gal(b1-4)[Fuc(a1-3)]GlcNAc(b1-3)Gal(b1-4)[Fuc(a1-3)]GlcNAc(b1-3)Gal(b1-4)[Fuc(a1-3)]GlcNAc
# Procedure, shortened: as §1
# Fuc(a1-2)Gal6S(b1-4)Glc = target: Fuc(a1-2)Gal6S(b1-4)Glc
# Procedure, shortened: as §1
# [12] = target: Fuc(a1-2)Gal6S(b1-4)Glc6S
# Procedure, shortened: as §1
# [13] = target: Fuc(a1-2)Gal6S(b1-4)GlcNAc
# Procedure, shortened: as §1
# Fuc(a1-2)[Gal(a1-3)]Gal = target: Fuc(a1-2)[Gal(a1-3)]Gal
# Procedure, shortened: as §1
# [14] = target: Fuc(a1-2)[Gal(a1-3)]Gal(b1-3)GlcNAc
# Procedure, shortened: as §1
# [15] = target: Fuc(a1-2)[Gal(a1-3)]Gal(b1-4)Glc
# Procedure, shortened: as §1
# [16] = target: Fuc(a1-2)[Gal(a1-3)]Gal(b1-4)GlcNAc
# Procedure, shortened: as §1
# [17] = target: Fuc(a1-2)[Gal(a1-3)]Gal(b1-4)[Fuc(a1-3)]GlcNAc
# Procedure, shortened: as §1
# [18] = target: Fuc(a1-2)[Gal(a1-4)]Gal(b1-4)GlcNAc
# Procedure, shortened: as §1
# [19] = target: Fuc(a1-2)[GalNAc(a1-3)]Gal
# Procedure, shortened: as §1
# [20] = target: Fuc(a1-2)[GalNAc(a1-3)]Gal(b1-3)GlcNAc
# Procedure, shortened: as §1
# [21] = target: Fuc(a1-2)[GalNAc(a1-3)]Gal(b1-4)Glc
# Procedure, shortened: as §1
# [22] = target: Fuc(a1-2)[GalNAc(a1-3)]Gal(b1-4)GlcNAc
# Procedure, shortened: as §1
binder,measurement,setting,value
"L-Selectin (Homo sapiens), P14151 (protein) MIFPWKCQSTQRDLWNIFKLWGWTMLCCDFLAHHGTDCWTYHYSEKPMNWQRARRFCRDNYTDLVAIQNKAEIEYLEKTLPFSRSYYWIGIRKIGGIWTWVGTNKSLTEEAENWGDGEPNNKKNKEDCVEIYIKRNKDAGKWNDDACHKLKAALCYTASCQPWSCSGHGECVEIINNYTCNCDVGYYGPQCQFVIQCEPLEAPELGTMDCTHPLGNFSFSSQCAFSCSEGTNLTGIEETTCGPFGNWSSPEPTCQVIQCEPLSAPDLGIMNCSHPLASFSFTSACTFICSEGTELIGKKKTICESSGIWSNPSPICQKLDKSFSMIKEGDYNPLFIPVAVMVTAFSGLAFIIWLARRLKKGKKSKRSMNDPY",glycan array binding signal (z-score),Fuc(a1-2)Gal,-0.272
same,glycan array binding signal (z-score),Fuc(a1-2)Gal(b1-3)GalNAc,-0.293
same,glycan array binding signal (z-score),[1],-0.258
same,glycan array binding signal (z-score),[2],0.04
same,glycan array binding signal (z-score),[3],0.062
same,glycan array binding signal (z-score),Fuc(a1-2)Gal(b1-3)GlcNAc,-0.269
same,glycan array binding signal (z-score),[4],-0.199
same,glycan array binding signal (z-score),[5],-0.36
same,glycan array binding signal (z-score),Fuc(a1-2)Gal(b1-4)Glc,1.57
same,glycan array binding signal (z-score),Fuc(a1-2)Gal(b1-4)Glc6S,-0.11
same,glycan array binding signal (z-score),Fuc(a1-2)Gal(b1-4)GlcNAc,-0.224
same,glycan array binding signal (z-score),[6],-0.335
same,glycan array binding signal (z-score),[7],-0.409
same,glycan array binding signal (z-score),[8],-0.183
same,glycan array binding signal (z-score),[9],-0.378
same,glycan array binding signal (z-score),[10],-0.39
same,glycan array binding signal (z-score),[11],-0.309
same,glycan array binding signal (z-score),Fuc(a1-2)Gal6S(b1-4)Glc,-0.177
same,glycan array binding signal (z-score),[12],0.159
same,glycan array binding signal (z-score),[13],-0.004
same,glycan array binding signal (z-score),Fuc(a1-2)[Gal(a1-3)]Gal,-0.191
same,glycan array binding signal (z-score),[14],-0.221
same,glycan array binding signal (z-score),[15],-0.415
same,glycan array binding signal (z-score),[16],0.067
same,glycan array binding signal (z-score),[17],-0.273
same,glycan array binding signal (z-score),[18],0.366
same,glycan array binding signal (z-score),[19],-0.368
same,glycan array binding signal (z-score),[20],-0.383
same,glycan array binding signal (z-score),[21],-0.053
same,glycan array binding signal (z-score),[22],-0.174
